About 2,200 (0.71%) of roughly 310,000 compounds showed an effect of 50% or more. The effect is printed as a negative number. The list shows a part of the results.
target: human ether-à-go-go-related gene (hERG) potassium channel (human, UniProt Q12809); test: primary screen, population patch clamp on CHO cells stably expressing hERG
Sequence (Q12809 whole entry, looked up): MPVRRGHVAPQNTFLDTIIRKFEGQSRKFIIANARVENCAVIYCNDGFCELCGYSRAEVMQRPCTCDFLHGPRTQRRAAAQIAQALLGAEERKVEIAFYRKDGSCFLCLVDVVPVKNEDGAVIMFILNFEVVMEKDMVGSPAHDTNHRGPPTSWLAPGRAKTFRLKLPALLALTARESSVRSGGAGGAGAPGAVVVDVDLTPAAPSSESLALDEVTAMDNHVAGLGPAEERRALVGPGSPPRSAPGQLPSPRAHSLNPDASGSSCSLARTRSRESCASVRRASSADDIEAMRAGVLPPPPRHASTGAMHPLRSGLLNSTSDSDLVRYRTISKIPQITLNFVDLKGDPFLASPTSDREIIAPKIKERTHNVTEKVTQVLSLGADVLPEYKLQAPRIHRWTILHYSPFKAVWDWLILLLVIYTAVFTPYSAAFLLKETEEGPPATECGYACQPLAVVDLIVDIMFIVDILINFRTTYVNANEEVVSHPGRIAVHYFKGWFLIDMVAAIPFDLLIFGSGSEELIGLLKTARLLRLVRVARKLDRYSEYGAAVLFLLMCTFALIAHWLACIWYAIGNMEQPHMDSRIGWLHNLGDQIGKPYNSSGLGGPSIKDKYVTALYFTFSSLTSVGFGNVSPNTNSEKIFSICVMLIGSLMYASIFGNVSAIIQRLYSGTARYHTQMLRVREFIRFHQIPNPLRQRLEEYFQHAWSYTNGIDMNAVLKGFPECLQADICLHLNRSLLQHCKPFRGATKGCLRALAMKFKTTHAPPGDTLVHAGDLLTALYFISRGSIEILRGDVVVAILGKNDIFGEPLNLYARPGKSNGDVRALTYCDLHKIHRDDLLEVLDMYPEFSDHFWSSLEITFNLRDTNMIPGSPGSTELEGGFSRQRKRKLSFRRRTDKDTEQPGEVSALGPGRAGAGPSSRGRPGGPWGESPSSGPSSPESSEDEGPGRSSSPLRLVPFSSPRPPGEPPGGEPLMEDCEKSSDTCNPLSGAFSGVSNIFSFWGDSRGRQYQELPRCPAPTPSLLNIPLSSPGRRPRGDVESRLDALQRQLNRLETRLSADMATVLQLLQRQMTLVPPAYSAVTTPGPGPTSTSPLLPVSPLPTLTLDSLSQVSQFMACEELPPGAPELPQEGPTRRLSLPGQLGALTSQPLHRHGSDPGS

SMILES	hERG current change (%, negative = inhibition) at 1uM [%]
O=C(C(Cl)Cl)N1CCN(Cc2ccc3c(c2)OCO3)CC1	12.9
COc1ccc(S(=O)(=O)Nc2c(O)c3ccccc3oc2=O)cc1	14.9
CCCn1c(=O)c2c(ncn2C)n(CCC)c1=O	3.69
N#Cc1cn(CCOc2ccccc2F)c2ccccc12	3.76
COc1ccc(CCC(=O)NC(C)C)cc1	14.3
Cc1nnc(SCC(=O)c2ccc(Cl)cc2)s1	8.62
CC(C)OC(=O)CSc1nc2c(cc1C#N)CCCCC2	10.2
Cc1ccc(CC(=O)N2CCN(Cc3ccccc3)CC2)cc1	13.9
Cc1ccccc1OCC(=O)NNC(=O)C1CCCCC1C(=O)O (centres unmarked)	10
O=C(Nc1ccc(Cl)cc1)OCc1cc(-c2ccccc2)on1	5.12
COc1ccc(NC(=O)C2CCCN(CCCc3ccccc3)C2)cc1OCC(C)C.O=C(O)/C=C/C(=O)O (centres unmarked)	10.3
Cl.N[C@@H](Cc1c[nH]c2ccccc12)c1nnc(SCc2c(F)cccc2Cl)o1	13.5
CCCCNC(=O)C1CC(c2ccc(C(F)(F)F)cc2)=NO1 (centres unmarked)	8.91
C/C(=N/NC(=O)CN1CCN(Cc2ccccc2Cl)CC1)c1ccncc1	-18.3
CC1CCCCC1NC(=O)c1cn(C)c2ccc(S(=O)(=O)N3CCCC3)cc2c1=O (centres unmarked)	17.3
O=[N+]([O-])c1ccc(/C=[N+](\[O-])CCO)o1	8.78
Cc1ccc(C(=O)NC(=S)Nc2cc(C(F)(F)F)ccc2Cl)cc1	14.8
CC1=Nn2c(nnc2C2CCCCC2)SC1	-1.58
Cc1ccc(N2CCN(C(=O)N3CCCC3)CC2)cc1C	4.47
COC(=O)Cn1nc(-c2ccccc2)n(-c2ccccc2)c1=S	5.53
O=C(Nc1cccc2ccccc12)N1CCCN(c2c(Cl)cncc2Cl)CC1	10.9
Cc1ccc(S(=O)(=O)N2CCOCC2)cc1NC(=O)COc1cccc(Oc2ccccc2)c1	8.52
CC1=NN(C(C#N)c2ccccc2)C(C)(C)C1 (centres unmarked)	3.25

SMILES	hERG current change (%, negative = inhibition) at 1uM [%]
Cc1cccc(/C(N)=N/OC(=O)c2cccs2)c1	13.4
Cc1nc(-c2cccc(S(=O)(=O)N3CCCCC3)c2)cs1	-3.38
COc1ccc(/C=C/C=N/NC(=O)COc2ccc(OC)cc2)cc1	11.6
Cc1nc(C)c(C(=O)NNC(=O)c2ccc(Br)cc2)s1	16.3
COc1cccc(CSc2nnc(-c3ccco3)n2C)c1	9.5
Cc1ccc(S(=O)(=O)N/N=C\c2ccc([N+](=O)[O-])o2)cc1C	11.3
C/C(O)=C\c1nc2ccccc2oc1=O	13.1
O=C(N/N=C/c1ccc([N+](=O)[O-])o1)c1cc(-c2ccncc2)nc2ccccc12	-13.6
O=C(CSc1nnc(SCc2ccccc2Cl)s1)N/N=C/c1c[nH]c2ccccc12	10.8
COc1cccc(NC(=O)CN(C)C(=O)c2ccc(N3CCCCC3)c([N+](=O)[O-])c2)c1	-6.72
Cc1ccc(C)c(NCC(=O)c2ccc(Cl)cc2)c1	16.1
CCCNC(=O)C(Cc1ccccc1)NC(=O)c1cccc([N+](=O)[O-])c1 (centres unmarked)	14.1
CC1CC(C)CN(S(=O)(=O)c2ccc3c(c2)CC(C)N3C(=O)C2CC2)C1 (centres unmarked)	16.6
COc1ccc(C(CNC(=O)c2oc3ccc(Cl)cc3c2C)N2CCCCC2)cc1 (centres unmarked)	10.9
CCOC(=O)CC(=O)CSc1ncc(C(=O)OCC)c(N)n1	10.9
CC(C)NC(=O)C(c1ccc(F)cc1)N(C(=O)CCC(=O)Nc1ccccn1)C1CCCCC1 (centres unmarked)	5.91
Cc1ccc(S(=O)(=O)NCc2ccncc2)c(C)c1C	14.8
O=C(COC(=O)c1ncc(Cl)c(Cl)c1Cl)NC1CCS(=O)(=O)C1 (centres unmarked)	-1.03
N#Cc1c(SCC(N)=O)nsc1SCc1ccc(Cl)cc1	3.33
O=C(Cc1ccc(S(=O)(=O)N2CCOCC2)s1)NCC(=O)Nc1ccccc1Br	6.56
O=C(CN1C(=O)NC(Cc2ccccc2)C1=O)Nc1ccccc1 (centres unmarked)	4.6
COc1ccc(N(CC(=O)NCCOc2ccccc2)S(=O)(=O)c2ccc(C)cc2)cc1	-4.35
Cc1ccc(CCNC(=O)C2CC(c3cccc(F)c3)=NO2)cc1 (centres unmarked)	17.2

SMILES	hERG current change (%, negative = inhibition) at 1uM [%]
COC(=O)c1c(NC(=O)CN2CCC(C(N)=O)CC2)c2c(C)cccc2n1C	23.3
CCc1ccc(C2CC(c3ccco3)=NN2S(C)(=O)=O)cc1 (centres unmarked)	15.3
CN(C)C(CNC(=O)c1ccc2c(=O)n(-c3ccccc3F)c(=S)[nH]c2c1)Cc1ccccc1 (centres unmarked)	7.71
O=C1/C(=C/c2ccccc2Cl)N2CCC1CC2	10.3
Cc1ccnc(NS(=O)(=O)c2ccc(NC(=O)C34CC5CC(C)(CC(C)(C5)C3)C4)cc2)n1	-8.01
Cc1cc(C)nc(SCC(=O)Nc2ncc(Cc3ccc(Cl)c(Cl)c3)s2)n1	4.85
Cc1ccc(N2CC(=O)N(NC(=O)c3sc4nc(C)cc(C)c4c3N)CC2=O)cc1	14.7
Cc1cc(C)[n+](CCCC[n+]2c(C)cc(C)cc2C)c(C)c1.[O-][Cl+3]([O-])([O-])[O-]	-0.768
O=C(N/C(=C\c1cccc([N+](=O)[O-])c1)C(=O)N(CCO)CCO)c1ccco1	15
Cc1ccc(CCNC(=O)C2CCCN(C(=O)c3cc4sccc4n3C)C2)cc1 (centres unmarked)	-1.74
CC(C)OC(=O)C(C#N)c1nc2ccccc2nc1N1CCN(Cc2ccccc2)CC1 (centres unmarked)	6.06
Cc1cccc(C)c1NC(=S)N(C)CCc1ccccn1	1.67
COc1cc2c(c(OC)c1OC)CCc1cnoc1-2	8.26
COC(=O)c1sc2ccccc2c1-n1cccc1C(=O)C(=O)Nc1ccc(Cl)cc1	-2
C/C(CC(=O)NC12CC3CC(CC(C3)C1)C2)=N\NC(=O)Cc1cccs1	4.16
COc1ccc(NC(=O)c2cc(C(C)C)on2)cc1OC	8.12
CC1CCCC(C)N1C(=O)c1cc(-c2ccco2)on1 (centres unmarked)	10.2
Cc1ccc(-c2nc(N)n(S(C)(=O)=O)n2)cc1	9.04
CCNC(=S)N/N=C/c1cc(C)n(-c2ccc(Cl)cc2)c1C	12.4
O=C(CN1C(=O)NC(c2ccccc2)(c2ccccc2)C1=O)NC1CCCCC1	2.49
CCc1nnc(NS(=O)(=O)c2ccc(N3C(=O)C4CC=C(Cl)CC4C3=O)cc2)s1 (centres unmarked)	12.5
CCC(C)(C(=O)NC1CCCCC1)N(Cc1ccco1)C(=O)CNC(=O)c1ccccc1 (centres unmarked)	5.02
Cn1c(COc2ccccc2)nnc1SCC(=O)Nc1ccc(N2CCOCC2)c(Cl)c1	-11.4

SMILES	hERG current change (%, negative = inhibition) at 1uM [%]
CC(=O)C1=C(C)N(Cc2ccccc2)C(=O)N[C@H]1c1cccc(F)c1	2.39
COc1ccc(N2CC(C(=O)Nc3ccccc3N3CCCC3)CC2=O)c(OC)c1 (centres unmarked)	8.29
Cc1ccc(OCC(=O)NNC(=O)C2CCN(c3ncnc4sc(C)c(C)c34)CC2)cc1	-8.85
CCCCCCSC1=C(C#N)C(c2ccc(O)cc2)CC(=O)N1 (centres unmarked)	4.45
Cc1cccc(-c2cc3nc(C)cc(N4CC(C)CC(C)C4)n3n2)c1 (centres unmarked)	14.8
CCOC(=O)c1sc(NC(=O)CCN2C(=O)c3cccc([N+](=O)[O-])c3C2=O)c(C(=O)OCC)c1C	-0.177
O=C1CC(c2ccco2)CC(O)=C1C=Nc1cc(Cl)ccc1O (centres unmarked)	14.2
O=C(NCC1CCCO1)C1CC(=O)N(C2CCCCCC2)C1 (centres unmarked)	16
COC(=O)COc1cccc2c(=O)n(CC(=O)NCCc3ccccc3)ccc12	-0.762
CC(Oc1ccccc1Br)C(=O)N1CCc2ccccc21 (centres unmarked)	2.63
O=C(Cn1cnc2ccccc2c1=O)Nc1ccc2c(c1)OCO2	10
O=C(NCc1ccc(F)cc1)C(c1ccccc1)N(C(=O)c1csnn1)c1ccccc1 (centres unmarked)	14.7
COc1ccc(C(=O)/C=C/Nc2cc(C)ccn2)cc1	11.8
O=C(c1cccc(S(=O)(=O)N2CCCC2)c1)c1cccc(S(=O)(=O)N2CCCC2)c1	3.85
O=C(Oc1ccccc1C(=S)N1CCOCC1)c1ccccc1	12.5
COc1cc(CNCCN2CCOCC2)ccc1OCc1cccc(Cl)c1.Cl	-14.7
Cc1c(Cl)cnc(NC(=O)COC(=O)CCc2nc3ccccc3s2)c1Cl	7.23
O=c1[nH]c2ccc(Cl)cc2c(-c2ccccc2)c1SC(=S)N1CCOCC1	1.71
CCOCCNC(=O)c1ccccc1C(=O)NCCOCC	-2.45
CCc1ccc2[nH]c(=O)c(CN(Cc3ccco3)S(=O)(=O)c3ccc4c(c3)OCCO4)cc2c1	0.917
